Data on four compounds can be found in PubChem BioAssay (EPA / NIEHS).

Some entries of the source have several records that differ or are many. This is not the full list of results. The source may hold further records. Values that stand side by side are repeated measurements (runs, samples, wells, individuals or studies). Inconclusive results are not listed. The calls were made as follows, unless noted: active = hit-call score of the fitted dose curve at least 0.9, where 1 is the maximum; inactive = score below 0.9. Some structures have more than one record in an assay (separate samples or runs), and their calls can disagree. Brackets with × count equal records among those shown.

Usually AC50 stands for the concentration giving half of the maximal activity seen.

The nature of test [1]: ATG_DR4_LXR_CIS: Attagene CIS-FACTORIAL HepG2 Assay for human Liver X Receptor (LXR), DR4 submotif (AID 2282929). Conditions: HepG2 Attagene DR4 cis-reporter, mRNA transcription; actives raise or lower the signal. Summed up: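 Measures endogenous transcription factor activity via a DR4-driven reporter transcript in human HepG2 cells. Compounds incubated 24 h; mRNA quantified by RT-PCR and capillary electrophoresis, analysed as gain or loss of signal versus DMSO.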

A short description of test [2]: ATG_NRF2_ARE_CIS: Attagene CIS-FACTORIAL HepG2 Assay for human Nuclear Factor Erythroid 2 Related Factor 2 (NFR2) response to Antioxidant Response Elements (ARE) (AID 2282992).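 Also: reporter mRNA level measured by RT-PCR and capillary electrophoresis fluorescence.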 As to conditions: HepG2 Attagene ARE/NRF2 reporter, transcription factor activity; actives raise or lower the signal. The essentials:
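Fluorescence intensity of reporter-specific cDNA fragments, separated by capillary electrophoresis, reflects mRNA induction in transfected HepG2 cells at 24 h. Activity is fitted bidirectionally, DMSO serving as baseline.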

A short description of test [3]: ATG_BRE_CIS: Attagene CIS-FACTORIAL HepG2 Assay for human Bone Morphogenetic Protein (BMP) Response Element (BRE) (AID 2282933). Conditions: HepG2 BMP response element reporter, Attagene transcription factor profiling; actives raise or lower the signal. Summed up: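 HepG2 cells transiently transfected with multiplexed cis-element reporter units were dosed with chemical for 24 h. Reporter mRNA was measured by RT-PCR with fluorescent labelling, HpaI digestion and capillary electrophoresis; bidirectional fitting relative to DMSO.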

For test [4], the target named is Retinoic acid receptor alpha (Homo sapiens) (UniProt P10276). The test can be described thus: ATG_DR5_RAR_CIS: Attagene CIS-FACTORIAL HepG2 Assay for human Retinoic Acid Receptor Alpha (RARE), DR5 submotif (AID 2282934).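 Also: reporter responds to endogenous RAR alpha beta and gamma in HepG2 not RARA alone.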 As to conditions: HepG2 Attagene cis-factorial RARE DR5 reporter, mRNA; actives raise or lower the signal.
Test [5] is described as follows: ATG_ISRE_CIS: Attagene CIS-FACTORIAL HepG2 Assay for human Interferon Regulatory Factor 1 (IRF1) binding to an Interferon-Stimulated Response Element (ISRE) (AID 2282948). Conditions: HepG2 ISRE cis-reporter (Attagene), mRNA transcription readout; actives raise or lower the signal. Summed up: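 Signal reflects induction or loss of ISRE-linked reporter mRNA in transiently transfected HepG2 cells after a 24 h treatment, detected by fluorescent RT-PCR fragments on capillary electrophoresis and normalised to DMSO.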

Test [6] can be described thus: ATG_PBREM_CIS: Attagene CIS-FACTORIAL HepG2 Assay for human Phenobarbital-responsive Enhancer Module (PBREM) (AID 2282955). As to conditions: HepG2 PBREM cis-reporter, Attagene multiplexed transcription; actives raise or lower the signal. The essentials:
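After a 24 h incubation with test chemical, transfected HepG2 cells yield total RNA; reporter-specific RT-PCR products are fluorescently labelled, HpaI-digested and resolved by capillary electrophoresis against ROX size standards.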

Test [7] can be described thus: ATG_SREBP_CIS: Attagene CIS-FACTORIAL HepG2 Assay for human Sterol Regulatory Element Binding (SREBP) (AID 2282962). Conditions: HepG2 Attagene cis-factorial SREBP reporter, mRNA; actives raise or lower the signal. Summed up:
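Values derive from bidirectional curve fitting with DMSO as baseline. The underlying measurement is reporter mRNA from cis-element-regulated units in transiently transfected HepG2, quantified by RT-PCR and capillary electrophoresis after 24 h exposure.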

The nature of test [8]: ATG_VDRE_CIS: Attagene CIS-FACTORIAL HepG2 Assay for human Vitamin D Receptor Element (VDRE) (AID 2282968). Conditions: HepG2 VDRE cis-reporter transcription, actives raise or lower the signal. The essentials: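 Transfected HepG2 reporter cells, chemical treatment 24 h. RNA isolated, cDNA amplified with reporter-specific primers, products analysed by capillary electrophoresis. Endpoint fitted in both directions versus DMSO.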

The target of test [9] is Nuclear receptor subfamily 4 group A member 2 (Homo sapiens) (UniProt P43354). The test can be described thus: ATG_NURR1_TRANS: Attagene TRANS-FACTORIAL HepG2 Assay for human Nuclear Receptor Related Protein 1 (NURR1) (AID 2282985; active = hit-call score of the fitted dose curve at least 0.9, where 1 is the maximum). As to conditions: HepG2 Attagene TRANS reporter, mRNA readout. Summed up:
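Chimeric NR-Gal4 proteins were expressed in human HepG2 cells bearing GAL4-UAS reporter units, and induced reporter mRNA was quantified 24 h post-dosing by RT-PCR and capillary electrophoresis.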

Test [10] deals with Myc proto-oncogene protein (Homo sapiens) (UniProt P01106). The test can be described thus: ATG_Myc_CIS: Attagene CIS-FACTORIAL HepG2 Assay for human Myelocytomatosis (Myc) Proto-Oncogene Transcription Factor (AID 2282990). Conditions: HepG2, Attagene cis-reporter transcription factor activity; actives raise or lower the signal. The essentials:
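DMSO-normalised, bidirectionally fitted reporter mRNA signal. HepG2 cells transfected with cis reporter constructs, treated 24 h; transcripts detected by RT-PCR, 6-FAM primer extension and CE.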

Test [11] deals with Nuclear receptor subfamily 1 group I member 2 (Homo sapiens) (UniProt O75469). Put plainly: ATG_PXR_TRANS: Attagene TRANS-FACTORIAL HepG2 Assay for human Pregnane X Receptor (PXR) (AID 2283008; active = hit-call score of the fitted dose curve at least 0.9, where 1 is the maximum). Summed up: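 Transient HepG2 transfectants carrying multiplexed reporter transcription units; PXR activity read through a Gal4 chimera. 24 h exposure. RT-PCR/CE fluorescence; upward curve fit referenced to DMSO.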

Test [12] deals with Cytochrome P450 2C19 (Homo sapiens) (UniProt P33261). Put plainly: NVS_ADME_hCYP2C19: NovaScreen (NVS) CYP450-related Enzyme Activity (ADME) Assay for human CYP2C19 (AID 2283113; active = hit-call score of the fitted dose curve at least 0.9, where 1 is the maximum;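 also: potency for inhibition seen as loss of fluorescent signal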). Summed up:
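Cell-free assay of recombinant human CYP2C19 expressed in insect cells, with a fluorogenic substrate; fluorescence intensity read 1 hour after dosing. Loss of signal relative to acetonitrile negative control indicates inhibition. Primary screen at 10 uM in duplicate, then concentration series.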

The target in test [13] is human CYP1A2, CYP1A2 (gene 1544) (UniProt P05177). The test can be described thus: NVS_ADME_hCYP1A2: NovaScreen (NVS) CYP450-related Enzyme Activity (ADME) Assay for human CYP1A2 (AID 2283102; active = hit-call score of the fitted dose curve at least 0.9, where 1 is the maximum;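 also: potency for inhibition since loss of fluorescence marks reduced CYP1A2 activity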). Summed up:
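Cell-free recombinant human CYP1A2 expressed in insect cells, with fluorogenic substrate; fluorescence intensity read 0.5 h after dosing. Loss of signal relative to acetonitrile baseline scored. Primary screen in duplicate at 10 uM; actives retested in concentration series.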

For test [14], the target named is rat CYP2A1, Cyp2a1 (gene 24894) (UniProt P11711). The test can be described thus: NVS_ADME_rCYP2A1: NovaScreen (NVS) CYP450-related Enzyme Activity (ADME) Assay for rat CYP2A1 (AID 2283114). Summed up:
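Cell-free fluorescence enzyme-activity read on recombinant rat CYP2A1, taken 0.75 h post-dosing. Compounds were screened in duplicate at 10 uM, then hits tested in concentration series (max 20 uM); inhibition scored relative to acetonitrile baseline.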

Chain of UniProt P43354 (P43354 whole entry, looked up, the tested form may be a part): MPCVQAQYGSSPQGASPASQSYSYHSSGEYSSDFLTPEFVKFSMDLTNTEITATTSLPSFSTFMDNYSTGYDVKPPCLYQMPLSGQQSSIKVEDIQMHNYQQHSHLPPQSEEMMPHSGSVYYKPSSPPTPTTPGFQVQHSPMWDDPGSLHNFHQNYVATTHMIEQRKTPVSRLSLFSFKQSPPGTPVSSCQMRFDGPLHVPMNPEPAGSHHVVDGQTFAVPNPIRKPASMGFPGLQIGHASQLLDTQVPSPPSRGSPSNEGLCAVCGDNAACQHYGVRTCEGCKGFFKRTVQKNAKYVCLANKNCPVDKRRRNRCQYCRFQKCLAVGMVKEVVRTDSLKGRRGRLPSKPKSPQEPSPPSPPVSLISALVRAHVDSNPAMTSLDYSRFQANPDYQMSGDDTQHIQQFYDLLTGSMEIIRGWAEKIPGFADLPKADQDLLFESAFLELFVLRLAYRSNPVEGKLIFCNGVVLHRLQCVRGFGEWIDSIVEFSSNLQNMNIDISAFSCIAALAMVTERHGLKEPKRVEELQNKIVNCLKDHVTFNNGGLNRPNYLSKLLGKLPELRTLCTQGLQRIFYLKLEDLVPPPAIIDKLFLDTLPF
Chain of UniProt P10276 (P10276 whole entry, looked up, the tested form may be a part): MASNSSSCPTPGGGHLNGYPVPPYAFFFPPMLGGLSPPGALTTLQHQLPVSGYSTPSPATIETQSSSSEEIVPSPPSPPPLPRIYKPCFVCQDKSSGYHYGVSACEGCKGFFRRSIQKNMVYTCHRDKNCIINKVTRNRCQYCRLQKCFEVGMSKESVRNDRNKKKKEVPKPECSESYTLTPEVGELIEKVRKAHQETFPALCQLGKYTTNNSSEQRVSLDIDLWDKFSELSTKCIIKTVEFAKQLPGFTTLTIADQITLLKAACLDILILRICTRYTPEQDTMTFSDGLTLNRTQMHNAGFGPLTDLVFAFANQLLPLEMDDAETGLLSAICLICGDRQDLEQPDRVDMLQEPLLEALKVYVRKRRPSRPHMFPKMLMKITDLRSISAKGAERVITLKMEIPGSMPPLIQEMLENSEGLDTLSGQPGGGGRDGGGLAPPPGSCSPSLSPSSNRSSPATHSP
Chain of UniProt P33261 (P33261 whole entry, looked up): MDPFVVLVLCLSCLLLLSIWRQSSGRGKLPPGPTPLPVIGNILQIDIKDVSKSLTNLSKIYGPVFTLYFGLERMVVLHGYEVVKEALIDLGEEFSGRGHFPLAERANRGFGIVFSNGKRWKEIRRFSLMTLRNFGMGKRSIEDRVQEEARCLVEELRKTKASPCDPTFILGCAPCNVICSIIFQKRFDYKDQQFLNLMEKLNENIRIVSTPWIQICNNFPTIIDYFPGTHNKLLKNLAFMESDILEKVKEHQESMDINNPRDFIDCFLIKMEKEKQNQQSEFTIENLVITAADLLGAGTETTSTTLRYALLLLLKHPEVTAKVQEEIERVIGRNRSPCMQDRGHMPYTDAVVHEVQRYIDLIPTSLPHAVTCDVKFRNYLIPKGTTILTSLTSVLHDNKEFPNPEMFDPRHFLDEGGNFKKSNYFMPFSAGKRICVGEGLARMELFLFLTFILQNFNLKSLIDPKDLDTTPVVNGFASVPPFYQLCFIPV
Chain of UniProt O75469 (O75469 whole entry, looked up, the tested form may be a part): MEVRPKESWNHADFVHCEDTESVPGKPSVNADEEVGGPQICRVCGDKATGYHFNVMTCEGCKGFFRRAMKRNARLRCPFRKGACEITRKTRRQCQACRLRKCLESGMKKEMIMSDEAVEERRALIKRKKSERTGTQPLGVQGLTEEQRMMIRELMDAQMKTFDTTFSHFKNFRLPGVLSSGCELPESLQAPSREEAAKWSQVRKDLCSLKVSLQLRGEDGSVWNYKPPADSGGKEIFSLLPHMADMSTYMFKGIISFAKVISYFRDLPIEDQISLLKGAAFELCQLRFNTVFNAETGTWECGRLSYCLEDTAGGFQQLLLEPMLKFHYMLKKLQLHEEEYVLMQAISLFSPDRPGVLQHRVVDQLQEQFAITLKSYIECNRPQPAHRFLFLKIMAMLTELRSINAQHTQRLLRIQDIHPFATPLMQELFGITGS
Chain of UniProt P01106 (P01106 whole entry, looked up): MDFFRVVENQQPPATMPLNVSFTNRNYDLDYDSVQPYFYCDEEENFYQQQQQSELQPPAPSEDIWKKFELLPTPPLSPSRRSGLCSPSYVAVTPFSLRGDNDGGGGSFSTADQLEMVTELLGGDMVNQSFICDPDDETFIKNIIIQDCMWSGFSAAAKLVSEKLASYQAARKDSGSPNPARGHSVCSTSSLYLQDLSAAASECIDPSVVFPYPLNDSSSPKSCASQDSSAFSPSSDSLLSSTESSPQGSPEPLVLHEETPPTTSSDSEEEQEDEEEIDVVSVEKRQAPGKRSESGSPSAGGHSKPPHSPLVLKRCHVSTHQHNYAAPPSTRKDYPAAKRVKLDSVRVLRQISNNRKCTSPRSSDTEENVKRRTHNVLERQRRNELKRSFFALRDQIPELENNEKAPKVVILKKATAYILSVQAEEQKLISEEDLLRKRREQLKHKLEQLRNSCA
Chain of UniProt P11711 (P11711 whole entry, looked up): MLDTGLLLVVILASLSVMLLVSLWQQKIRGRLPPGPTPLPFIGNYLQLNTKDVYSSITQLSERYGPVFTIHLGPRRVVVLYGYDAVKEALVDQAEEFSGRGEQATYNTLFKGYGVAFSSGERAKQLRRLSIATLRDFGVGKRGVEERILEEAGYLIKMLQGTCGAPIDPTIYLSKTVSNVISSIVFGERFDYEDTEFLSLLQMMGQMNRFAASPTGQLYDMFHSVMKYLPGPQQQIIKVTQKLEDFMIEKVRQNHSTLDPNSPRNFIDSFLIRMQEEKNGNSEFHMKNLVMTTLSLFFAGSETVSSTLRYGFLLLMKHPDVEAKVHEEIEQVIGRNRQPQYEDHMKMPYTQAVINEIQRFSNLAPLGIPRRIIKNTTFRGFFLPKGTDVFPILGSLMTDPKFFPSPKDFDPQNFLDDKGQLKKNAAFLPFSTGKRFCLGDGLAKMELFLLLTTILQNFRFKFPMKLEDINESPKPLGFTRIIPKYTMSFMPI
Chain of UniProt P05177 (P05177 whole entry, looked up): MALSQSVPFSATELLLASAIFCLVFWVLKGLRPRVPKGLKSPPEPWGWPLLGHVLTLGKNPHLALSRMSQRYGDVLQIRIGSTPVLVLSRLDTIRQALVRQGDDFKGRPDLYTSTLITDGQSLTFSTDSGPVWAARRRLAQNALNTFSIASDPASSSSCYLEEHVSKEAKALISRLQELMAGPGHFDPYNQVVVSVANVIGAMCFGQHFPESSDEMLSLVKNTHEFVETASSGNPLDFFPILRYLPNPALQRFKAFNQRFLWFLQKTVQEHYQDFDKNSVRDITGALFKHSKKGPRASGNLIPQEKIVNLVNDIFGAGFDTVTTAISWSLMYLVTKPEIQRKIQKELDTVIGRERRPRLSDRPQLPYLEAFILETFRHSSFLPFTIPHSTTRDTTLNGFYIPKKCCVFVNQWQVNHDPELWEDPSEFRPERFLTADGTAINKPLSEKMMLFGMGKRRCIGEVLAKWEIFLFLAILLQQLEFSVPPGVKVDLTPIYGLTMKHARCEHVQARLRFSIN

In the case of `COc1ccc(C(c2ccc(OC)cc2)C(Cl)(Cl)Cl)cc1`, the AC50 result in test [1] is “active: 14, 39.6, 23.3, 5.1 µM [separate samples]”; in [2] it was “active: 29.5, 60.1, 38.8, 3.14 µM [separate samples]”.

For the compound `C=CCC1=C(C)C(OC(=O)C2C(C=C(C)C)C2(C)C)CC1=O` (configuration not stated), the AC50 entry in test [3] was “active: 42.3, 44.5, 26.4, 24.9, 44.6, 13.8 µM [separate samples]”; in test [4], “active: 971 nM, 763 nM, 609 nM, 494 nM, 20.8 µM, 3.04 µM [separate samples]”; in test [5], “active: 29.5, 55.7, 55, 26.6, 81.7 µM [separate samples]”; in test [6], “active: 1.79, 11.6, 20.8, 34.1 µM [separate samples]”; in test [7], “active: 43.7, 28.5, 24.7, 83.6, 34.9 µM [separate samples]”; in test [8], “active: 1.28, 5.2, 2.39, 1.89, 21.8 µM [separate samples]”. Moreover, the AC50 result in test [9] is “active: 29.6, 42, 39, 45.4, 28.2, 7.44 µM [separate samples]”; in [10], “active: 35 (2×), 89.7, 126, 76.8 µM [separate samples]”; in [2] it was “active: 28.9, 25.3, 27.2, 25.7, 27, 5.76 µM [separate samples]”; in [11], “active: 1.07 µM, 632 nM, 1.57 µM, 1.45 µM, 2.13 µM, 13 µM [separate samples]”; in test [12], “active: 1.52, 1.37, 9.46, 3.84 µM [separate samples]”.

Regarding `CCCCOC(=O)c1ccccc1C(=O)OCCCC`, the AC50 entry in test [8] is “active: 27.7, 56.9, 83.7, 28 µM [separate samples]”.

For `CON(C)C(=O)Nc1ccc(Cl)c(Cl)c1`, the AC50 entry in test [11] is “active: 9.65, 25.8, 27.1, 33.6 µM [separate samples]”; in test [13], “active: 4.33, 7.9, 9.85, 2.32 µM [separate samples]”; in [14], “active: 917 nM, 2.36 µM, 5.85 µM, 556 nM [separate samples]”.
